From paper PMC7819943, “Rice protein-binding microarrays: a tool to detect cis-acting elements near promoter regions in rice” come the findings set out here.

The list shows a part of the results.

The target in this assay is T1, OsWOX13 (Oryza sativa, UniProt Q5QMM3 1-267).
T1 sequence: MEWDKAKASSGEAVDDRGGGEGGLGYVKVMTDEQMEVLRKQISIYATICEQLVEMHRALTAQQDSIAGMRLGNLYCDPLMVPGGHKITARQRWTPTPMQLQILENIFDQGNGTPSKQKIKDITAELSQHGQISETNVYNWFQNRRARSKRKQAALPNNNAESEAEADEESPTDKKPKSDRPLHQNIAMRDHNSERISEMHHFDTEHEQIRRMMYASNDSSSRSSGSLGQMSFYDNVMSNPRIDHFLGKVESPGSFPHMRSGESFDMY
The experiment in a line: protein-binding microarray (RPBM); PBS, 2% BSA, 51.3 ng/ul salmon testes DNA, 50 uM zinc acetate, 200 nM TF, 25 C, 1 h; high values mean tight binding. To be noted: protein: recombinant; tags: N-terminal polyhistidine and DsRed monomer fusion (pET32a); label: CyDye5-dUTP incorporated in the synthesized complementary strand; 3' TTTTT single-stranded linker to array surface; dsDNA, one strand shown. The essentials: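 The binding signal for each feature is its fluorescence intensity in arbitrary units. An Axon 4000B scanner was used to read a custom Agilent array that had been made double-stranded with Cy5-dUTP primer extension, blocked with 2% BSA, incubated at 25 °C for 1 h with 200 nM protein in PBS, 2% BSA, salmon testes DNA and 50 µM zinc acetate, and washed. The protein was an N-terminal polyhistidine–DsRed transcription factor fusion from E. coli BL21-CodonPlus, purified on Ni–NTA.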
Turning to “CGCCTAATCATTCTTTTAGTGGTAAGCGACATACCAGTTGCGGAGTCACCTAGTGCAG”, the binding signal was 3260 fluorescence intensity (a.u.).

Consider “CGCGGGGAATCAACTAGTTGATTTAAATAATACAAACCTACGGAGTCACCTAGTGCAG”, for which the binding signal is 6290 fluorescence intensity (a.u.). The result for “CCTGAATGAATATCACAAATACCATATCCATCGGTGAAAGCGGAGTCACCTAGTGCAG” reads 3780 fluorescence intensity (a.u.); that for “TGGAGTAATTACCATCTCCTGTGTCTATGTGAAGCAACTTCGGAGTCACCTAGTGCAG”, 9240 fluorescence intensity (a.u.). The result for “TAGATAGATAGAAGATAATAGAAGATAGATAATAGAAGATCGGAGTCACCTAGTGCAG” reads 10200 fluorescence intensity (a.u.); that for “GAAAATTAGTAGAGAACTAATTAGGGATAAAGTCATTATTCGGAGTCACCTAGTGCAG”, 13000 fluorescence intensity (a.u.); that for “CCATGCACTAAATTAAATGAGTAGGCATCGGCTCTGCTGACGGAGTCACCTAGTGCAG”, 3190 fluorescence intensity (a.u.). “AGTTTAAAGATTGATTTAGATTTAGATTCCACGTAATCGCCGGAGTCACCTAGTGCAG”: the binding signal was 19700 fluorescence intensity (a.u.). Take “AACGTGACTGTCCCATTATCTTGTGTCCACTTTATTTATACGGAGTCACCTAGTGCAG”: the binding signal was 4140 fluorescence intensity (a.u.).

With “GCATGAAGACATCAATTAATTAATTGCATGGTTACATGCACGGAGTCACCTAGTGCAG”, the binding signal is 37200 fluorescence intensity (a.u.). For the sequence “TGTCCGTCCCTGTCTGATTCCGCCGCGCCTGACCAGACTCCGGAGTCACCTAGTGCAG”, the binding signal is 3400 fluorescence intensity (a.u.). Take “TTTGATGGATCGGTGTGTACTCATGGTTGTGGTATCTGCCCGGAGTCACCTAGTGCAG”: the binding signal was 14400 fluorescence intensity (a.u.). Consider “AAAACAAATTTATAGTGAACAGAAACTCATCGCCATCAAACGGAGTCACCTAGTGCAG”, for which the binding signal was 5090 fluorescence intensity (a.u.). For “GTGATTTGTGCCGGGATTAAGGCCCATCAAAACAAGGCCTCGGAGTCACCTAGTGCAG”, the binding signal is 4970 fluorescence intensity (a.u.). Turning to “GGTAATCAATCTCCCTACGGCCCTGAACTGCAGGTGGTTGCGGAGTCACCTAGTGCAG”, the binding signal was 8450 fluorescence intensity (a.u.). Turning to “TGTTAGTGATTTGTTGCACCGTCGATGTGTTTCCTGTAGTCGGAGTCACCTAGTGCAG”, the binding signal is 9560 fluorescence intensity (a.u.). As for “GTTTTGATTTATCATCGCTGATAAGTCATATTAGTATGTTCGGAGTCACCTAGTGCAG”, the binding signal is 24300 fluorescence intensity (a.u.). For the sequence “TAAAATATAATCATATATTTAAATATAGTATATTTTCATCCGGAGTCACCTAGTGCAG”, the binding signal is 6160 fluorescence intensity (a.u.). For “GGCAATTATAATTTCTAATTGCGGTGTGATTAGGTTAATTCGGAGTCACCTAGTGCAG” the value was 47200 fluorescence intensity (a.u.); for “CAATAACAGATTGAGGCAACAAACCCGAACGGTATTGAAACGGAGTCACCTAGTGCAG”, 23000 fluorescence intensity (a.u.); for “CATGTATGTGATTGGTGTCACGGTTTGGCCGCCGTCGCCACGGAGTCACCTAGTGCAG”, 35800 fluorescence intensity (a.u.).

As for “CAGAGATTGAGAAGATGAAGAATGAGAATTTGATGCTCTCCGGAGTCACCTAGTGCAG”, the binding signal is 23100 fluorescence intensity (a.u.).

“TGACTTTTGATGATGGATGATTCCTGCAAAGTTGCTTGATCGGAGTCACCTAGTGCAG”: the binding signal is 4230 fluorescence intensity (a.u.).

On to “AATTAATAAATCTTAATGGACCTCACGCCGGTTCAAACCTCGGAGTCACCTAGTGCAG”, for which the binding signal was 3570 fluorescence intensity (a.u.). For “TATTCGATTAAAACTCTCAATCATGTGTGGTTAACACAAACGGAGTCACCTAGTGCAG”, the binding signal is 7490 fluorescence intensity (a.u.). Turning to “CACTGTCAATTACACCGAAGCAGACAGAAGGTGTTCCATACGGAGTCACCTAGTGCAG”, the binding signal is 24200 fluorescence intensity (a.u.).

Regarding “CGACCATCAATCAGTCGCTTGCTACGTCGCTTTCCTGATTCGGAGTCACCTAGTGCAG”, the binding signal was 12700 fluorescence intensity (a.u.). With “TCGCAATCAAGCTCATCTTTCCTGAAGGAGTTTGGGCTCGCGGAGTCACCTAGTGCAG”, the binding signal was 5200 fluorescence intensity (a.u.). In the case of “ATGATTGGCGCTAATTACCGATTCTGCGTGATTTTAATAACGGAGTCACCTAGTGCAG”, the binding signal was 39800 fluorescence intensity (a.u.). Take “TTGATAAAATTGATAAATATATAGTTGCATTTAGTTTAGTCGGAGTCACCTAGTGCAG”: the binding signal is 25900 fluorescence intensity (a.u.). The result for “CGGTTAGTTAGTTGATTAGTTATCTGCATGTTTCTGTTTTCGGAGTCACCTAGTGCAG” reads 8750 fluorescence intensity (a.u.). For “GAAATTAATCAACATCGTCAAACATTCCAAAACGAAGAGACGGAGTCACCTAGTGCAG”, the binding signal is 10800 fluorescence intensity (a.u.). Regarding “ATAAATAGACGTCGTGCTGCTAGCGTCTGATGAATGAACACGGAGTCACCTAGTGCAG”, the binding signal is 6980 fluorescence intensity (a.u.).

For “ATAGATAGATAGATCGGCGTGGGAGAAGACGACATCGCCGCGGAGTCACCTAGTGCAG”, the binding signal is 9180 fluorescence intensity (a.u.). Regarding “GCAGTCATAAACAATTAAAATAGTACTAATACTATTTCTACGGAGTCACCTAGTGCAG”, the binding signal was 3480 fluorescence intensity (a.u.). The result for “ATAATTTAAATGCTAAAACGACAATTGAATTGAAACTAAACGGAGTCACCTAGTGCAG” reads 6290 fluorescence intensity (a.u.). In the case of “AACCTTACTAAATTTTGGCAAATTAGTAATATTGCTAAAACGGAGTCACCTAGTGCAG”, the binding signal is 3690 fluorescence intensity (a.u.). Consider “TGGCAATTAATATCCTAAGTTGATCACTTAATTAAGCCATCGGAGTCACCTAGTGCAG”, for which the binding signal was 12000 fluorescence intensity (a.u.).

For the sequence “ACGAGTGAAATTGACTTGAGGCGTCGAGTTGCCTTATTGCCGGAGTCACCTAGTGCAG”, the binding signal was 4980 fluorescence intensity (a.u.).

As for “AGATAGACAGGAAGACAGATAGATAGATAGTTGTATGATCCGGAGTCACCTAGTGCAG”, the binding signal was 10200 fluorescence intensity (a.u.). In the case of “AATAACAGGTTGACAACGTTAAGTATGTTATTAACCACATCGGAGTCACCTAGTGCAG”, the binding signal was 4680 fluorescence intensity (a.u.). As to “TCTACTAGTAAATTTACGTTCTATCTTTAATACCTACTTCCGGAGTCACCTAGTGCAG”, the binding signal was 4090 fluorescence intensity (a.u.).
